Measured values: patent US6632621B1, “G protein-coupled receptor-like receptors and modulators thereof” (priority 1999, dated 2003)
Values joined by “and” are separate entries in the source; they are usually repeats but may differ in a detail not shown here. Equal entries are not always repeated. Where two headings read alike, the source gives them in different places. Some results were stated once for a whole list of compounds, not compound by compound. Some compounds share one range, which may span the group rather than tell each member. Where a SMILES comes first, the peptide text is derived from it. Where no end group is shown, it is not given here. [ ]: non-standard residue; d: D form. Tyr(3-I) = N[C@@H](Cc1ccc(O)c(I)c1)C(=O)O; Nle = CCCC[C@H](N)C(=O)O

Columns and labels:
CEGPCR19.2 = CEGPCR19.2 (Caenorhabditis elegans, UniProt H2KZY4); test: calcium mobilization assay (FLIPR), transiently transfected CHO cells, CEGPCR19.2; format: cell-based, C. elegans; details: Table 13; one range for the group of peptides
Procedure: Changes in intracellular calcium levels are another recognized indicator of […] receptor activity, and such assays can be employed to assay for modulators of GPCR-like receptor activity. For example, CHO cells stably transfected with a GPCR-like receptor expression construct are plated at a density of 4×10^4 cells/well in Packard black-walled 96-well plates specially designed to isolate fluorescent signals to individual wells. The cells are incubated for 60 minutes at 37° C. in modified Dulbecco's PBS (D-PBS), containing 36 mg/L pyruvate and 1 g/L glucose with the addition of 2.5 mM probenecid (Sigma Chemical Co.) and one of four calcium indicator dyes (Fluo3™ AM, Fluo4™ AM, Calcium Green™-1 AM, or Oregon Green™ 488 BAPTA-1 AM) at a concentration of 4 μM. Plates are washed once with modified D-PBS […] 1% fetal bovine serum and incubated for 10 minutes at 37° C. to remove residual dye from the cellular membrane. In addition, a series of washes with modified D-PBS is performed immediately prior to activation of the calcium response.
Calcium response is initiated by the addition of one or more candidate receptor agonist compounds, or a positive control such as a calcium ionophore A23187 (10 μM), or ATP (4 μM). Fluorescence is measured by Molecular Device's FLIPR with an argon laser, excitation at 488 nm. [See, e.g., Kuntzweiler et al., Drug Development Research, 44(1): 14-20 (1998).] The F-stop for the detector camera was set at 2.5 and the length of exposure was 0.4 msec. Basal fluorescence of cells was measured for 20 seconds prior to addition of agonist, ATP, or A23187, and was subtracted from the response signal. The calcium signal is measured for approximately 200 seconds, taking readings every two seconds. The calcium ionophore and ATP increase the calcium signal 200% above baseline levels. In general, activated GPCRs increase the calcium signal approximately 10-15% above baseline signal.
This appears especially useful for the assessment of possible activation of orphan GPCRs (i.e., GPCRs having unknown functions and unknown signaling pathways). The GTPγS assay was carried out with membranes prepared from CHO cells transiently transfected with DNA encoding C. elegans GPCRs using a 96-well MultiScreen G/FB filter plates and a MultiScreen vacuum manifold (Millipore) for filtration. Because the GTPγS assay is known to poorly recognize GPCRs coupled to the Gq class of G-proteins, a Ca^+2 mobilization assay, based on a FLIPR readout, was used as well to evaluate putative Gq-couplcd orphan GPCRs transiently transfected into CHO cells. It was essential to use a 37° C. to 28° C. temnperature downshift and to incubate the cells for an additional 24-48 hours for functional receptor expression. The temperature shift was implemented 24 hours after transfection. Without the temperature downshift, expression of functional receptor could not be detected.
The CEGPCR19.1 and CEGPCR19.2 receptors, expressed in CHO cells, were subjected to screens for peptide ligands (present at 10 μM each) using a calcium mobilization assay (FLIPR). This calcium flux assay provides an alternative to the use of other screening assays disclosed herein. The assay, known in the art, was performed on transiently transfected CHO cells that had been incubated for 24 hours at 37° C. immediately following transfection, followed by a 48-hour period at 28° C. Cells were then loaded with 4 µM Fluo-3 and 2.5 mM probenecid for calcium signaling (FLIPR) analysis. The results shown in Table 12 indicate that CEGPCR19.1 was activated by Flp18 peptides and some structurally similar A. suum peptides (identical C-terminal sequences of PGVLRF-NF2). […] The results support the conclusion that CEGPCR19.1 is either an isoform of, or closely related to, the CEGPCR4 receptor because both CEGPCR19.1 and CEGPCR4 were activated by the same Flp18 peptides as well as by A. suum peptides sharing a high degree of similarity with those Flp18 peptides. […]

CEGPCR19.1 = molecular target: T1, CEGPCR19.1 (Caenorhabditis elegans, UniProt Q6F3C9); test: calcium mobilization assay (FLIPR), transiently transfected CHO cells, CEGPCR19.1; format: cell-based, C. elegans
T1 sequence (Q6F3C9 1-433): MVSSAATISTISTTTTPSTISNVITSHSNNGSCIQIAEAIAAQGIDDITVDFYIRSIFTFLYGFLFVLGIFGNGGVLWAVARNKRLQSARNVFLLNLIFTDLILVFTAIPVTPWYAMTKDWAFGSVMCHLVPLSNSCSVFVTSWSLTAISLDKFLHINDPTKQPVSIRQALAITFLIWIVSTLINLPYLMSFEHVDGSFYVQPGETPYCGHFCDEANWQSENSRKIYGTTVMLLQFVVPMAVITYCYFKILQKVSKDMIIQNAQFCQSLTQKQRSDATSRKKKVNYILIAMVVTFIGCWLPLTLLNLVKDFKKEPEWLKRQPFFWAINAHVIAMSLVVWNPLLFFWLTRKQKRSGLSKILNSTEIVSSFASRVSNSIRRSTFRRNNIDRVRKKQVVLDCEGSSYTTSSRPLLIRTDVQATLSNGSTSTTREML

CEGPCR4 receptor [1] = molecular target: T2, CEGPCR4 receptor (Caenorhabditis elegans, UniProt A0A078BTK0); test: Flp18 binding assay: [125I]YDVPGVLRFamide binding and competition on CEGPCR4/CHO membranes; parameters: species or system C. elegans; details: Table 8; one range for the group of peptides; competition with [125I]YDVPGVLRFamide
T2 sequence (A0A078BTK0 1-376): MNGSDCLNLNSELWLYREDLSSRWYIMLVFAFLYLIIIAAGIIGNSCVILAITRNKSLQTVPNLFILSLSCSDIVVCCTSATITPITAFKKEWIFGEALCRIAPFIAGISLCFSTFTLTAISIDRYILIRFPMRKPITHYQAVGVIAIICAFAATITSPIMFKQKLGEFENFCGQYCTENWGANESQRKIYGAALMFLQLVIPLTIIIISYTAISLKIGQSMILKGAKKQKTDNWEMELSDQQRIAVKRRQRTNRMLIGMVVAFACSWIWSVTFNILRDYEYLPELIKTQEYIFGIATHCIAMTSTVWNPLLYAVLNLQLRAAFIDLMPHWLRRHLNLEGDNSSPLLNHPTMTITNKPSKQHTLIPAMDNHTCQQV

CEGPCR4 receptor [2] = molecular target: T2, CEGPCR4 receptor; test: [35S]GTPγS binding assay, membranes of CHO cells transfected with CEGPCR4; format: biochemical, C. elegans; details: Table 8; one range for the group of peptides
[3] = Table 12, one range for the group, 24 h 37° C. then 48 h 28° C., read-out: EC50 range

Sequence of CEGPCR19.2 (H2KZY4 entry or part of it): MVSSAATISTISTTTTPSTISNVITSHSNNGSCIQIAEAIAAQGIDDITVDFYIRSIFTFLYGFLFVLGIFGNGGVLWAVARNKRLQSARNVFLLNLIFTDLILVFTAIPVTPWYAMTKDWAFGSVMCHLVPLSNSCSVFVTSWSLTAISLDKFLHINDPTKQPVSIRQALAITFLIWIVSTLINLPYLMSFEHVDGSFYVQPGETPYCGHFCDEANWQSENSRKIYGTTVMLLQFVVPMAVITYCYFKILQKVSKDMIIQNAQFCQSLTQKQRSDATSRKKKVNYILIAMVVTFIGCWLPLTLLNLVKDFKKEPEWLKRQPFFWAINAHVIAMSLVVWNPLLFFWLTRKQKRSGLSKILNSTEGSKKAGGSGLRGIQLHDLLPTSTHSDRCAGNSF

Molecule	EC50 (CEGPCR19.2) [nM]	EC50 (CEGPCR19.1; [3]) [nM]	IC50 (CEGPCR4 receptor [1])	EC50 (CEGPCR4 receptor [2])	EC50 (CEGPCR19.1; read-out: EC50) [nM]
H-GLGPRPLRF-NH2 [GLGPRPLRF-NH2]	600 to 5000	200 to 1500			
DVPGVLRF-NH2 [DVPGVLRF-NH2]		30 to 100	1 to 60 nM and 0.5 to 10 nM	5 to 400 nM and 5 to 80 nM	
PGVLRF-NH2 [PGVLRF-NH2]			1 to 60 nM	5 to 400 nM	
SAEPFGTMRF-NH2 [SAEPFGTMRF-NH2]			50000 to 500000 nM	≥ 10000 nM	
KSVPGVLRF-NH2 [KSVPGVLRF-NH2]		30 to 100	0.5 to 10 nM	5 to 80 nM	
CCCC[C@H](NC(=O)[C@H](CC(C)C)NC(=O)[C@@H](N)[C@@H](C)CC)C(=O)N[C@@H](CCCNC(=N)N)C(=O)N[C@@H](Cc1ccccc1)C(N)=O [ILNleRF-NH2] (H-IL[Nle]RF-NH2; N-terminus assumed)			60000 to 900000 nM	400 to 9000 nM	
SPLGTMRF-NH2 [SPLGTMRF-NH2]			50000 to 500000 nM	≥ 10000 nM	
CC(C)C[C@H](NC(=O)[C@@H](NC(=O)CNC(=O)[C@@H]1CCCN1C(=O)[C@@H](NC(=O)[C@@H](N)Cc1ccc(O)c(I)c1)C(C)C)C(C)C)C(=O)N[C@@H](CCCNC(=N)N)C(=O)N[C@@H](Cc1ccccc1)C(N)=O [3-Iodo-Y-VPGVLRF-NH2] (H-[Tyr(3-I)]VPGVLRF-NH2; N-terminus assumed)			1 to 60 nM	5 to 400 nM	
PDNFMRF-NH2 [PDNFMRF-NH2]			50000 to 500000 nM	≥ 10000 nM	
CC(C)C[C@H](NC(=O)[C@@H](NC(=O)CNC(=O)[C@@H]1CCCN1C(=O)[C@@H](NC(=O)[C@H](CC(=O)O)NC(=O)[C@@H](N)Cc1ccc(O)c(I)c1)C(C)C)C(C)C)C(=O)N[C@@H](CCCNC(=N)N)C(=O)N[C@@H](Cc1ccccc1)C(N)=O [3-Iodo-Y-DVPGVLRF-NH2] (H-[Tyr(3-I)]DVPGVLRF-NH2; N-terminus assumed)			1 to 60 nM	5 to 400 nM	
FDRDFMHF-NH2 [FDRDFMHF-NH2]	600 to 5000				
DFDGAMPGVLRF-NH2 [DFDGAMPGVLRF-NH2]		30 to 100	0.5 to 10 nM	5 to 80 nM	
YGVLRF-NH2 [Y-GVLRF-NH2]			1 to 60 nM	5 to 400 nM	
AEGLSSPLIRF-NH2 [AEGLSSPLIRF-NH2]	600 to 5000				
EIVFHQISPIFFRF-NH2 [EIVFHQISPIFFRF-NH2]			50000 to 500000 nM	≥ 10000 nM	
AGPRFIRF-NH2 [AGPRFIRF-NH2]	600 to 5000				
CC(C)C[C@H](NC(=O)[C@@H](NC(=O)CNC(=O)[C@@H]1CCCN1C(=O)[C@@H](N)Cc1ccc(O)c(I)c1)C(C)C)C(=O)N[C@@H](CCCNC(=N)N)C(=O)N[C@@H](Cc1ccccc1)C(N)=O [3-Iodo-Y-PGVLRF-NH2] (H-[Tyr(3-I)]PGVLRF-NH2; N-terminus assumed)			1 to 60 nM	5 to 400 nM	
ARGPQLRLRF-NH2 [ARGPQLRLRF-NH2]	600 to 5000	200 to 1500			
SVPGVLRF-NH2 [SVPGVLRF-NH2]		30 to 100	0.5 to 10 nM	5 to 80 nM	
GMPGVLRF-NH2 [GMPGVLRF-NH2]	600 to 5000	200 to 1500	0.5 to 10 nM	5 to 80 nM	

Molecule	EC50 (CEGPCR19.2) [nM]	EC50 (CEGPCR19.1; [3]) [nM]	IC50 (CEGPCR4 receptor [1])	EC50 (CEGPCR4 receptor [2])	EC50 (CEGPCR19.1; read-out: EC50) [nM]
Ac-VPGVLRF-NH2 [Ac-VPGVLRF-NH2]			1 to 60 nM	5 to 400 nM	
SDNFMRF-NH2 [SDNFMRF-NH2]			50000 to 500000 nM	≥ 10000 nM	
GVLRF-NH2 [GVLRF-NH2]			1 to 60 nM	5 to 400 nM	
NGAPQPFVRF-NH2 [NGAPQPFVRF-NH2]			50000 to 500000 nM	≥ 10000 nM	
SEVPGVLRF-NH2 [SEVPGVLRF-NH2]		30 to 100	0.5 to 10 nM	5 to 80 nM	
ASPSFIRF-NH2 [ASPSFIRF-NH2]			0.5 to 10 nM	5 to 80 nM	
VPGVLRF-NH2 [VPGVLRF-NH2]			1 to 60 nM	5 to 400 nM	
GDVPGVLRF-NH2 [GDVPGVLRF-NH2]		30 to 100	0.5 to 10 nM	5 to 80 nM	20 to 100
Ac-GVLRF-NH2 [Ac-GVLRF-NH2]			1 to 60 nM	5 to 400 nM	
CC(C)C[C@H](NC(=O)[C@@H](NC(=O)CNC(=O)[C@@H](N)Cc1ccc(O)c(I)c1)C(C)C)C(=O)N[C@@H](CCCNC(=N)N)C(=O)N[C@@H](Cc1ccccc1)C(N)=O [3-Iodo-Y-GVLRF-NH2] (H-[Tyr(3-I)]GVLRF-NH2; N-terminus assumed)			1 to 60 nM	5 to 400 nM	
YDVPGVLRF-NH2 [Y-DVPGVLRF-NH2]			1 to 60 nM	5 to 400 nM	
GGPQGPLRF-NH2 [GGPQGPLRF-NH2]			50000 to 500000 nM	≥ 10000 nM	
EIPGVLRF-NH2 [EIPGVLRF-NH2]		30 to 100	0.5 to 10 nM	5 to 80 nM	
KPNFLRF-NH2 [KPNFLRF-NH2]			60000 to 900000 nM	400 to 9000 nM	
YVPGVLRF-NH2 [Y-VPGVLRF-NH2]			1 to 60 nM	5 to 400 nM	
AVPGVLRF-NH2 [AVPGVLRF-NH2]		30 to 100	0.5 to 10 nM	5 to 80 nM	20 to 100
GNSFLRF-NH2 [GNSFLRF-NH2]			60000 to 900000 nM	400 to 9000 nM	
TNRNFLRF-NH2 [TNRNFLRF-NH2]			50000 to 500000 nM	≥ 10000 nM	
YPGVLRF-NH2 [Y-PGVLRF-NH2]			1 to 60 nM	5 to 400 nM	
